Results from PMC6891891.
These are yes or no findings as the source states them, for the method shown. Where a sequence is shown, tags or fusion partners need not be part of it.

Assays:
[1] = molecular target: T1, Slx5 subunit of the Slx5/8 STUbL, Y2H fusion (S. cerevisiae) (UniProt P32828); assay: condition: only in a Y2H reporter strain lacking both Siz1 and Siz2; two-hybrid; directed Y2H in a reporter strain in which both SUMO ligases Siz1 and Siz2 were deleted (Figure 4E)
T1 sequence: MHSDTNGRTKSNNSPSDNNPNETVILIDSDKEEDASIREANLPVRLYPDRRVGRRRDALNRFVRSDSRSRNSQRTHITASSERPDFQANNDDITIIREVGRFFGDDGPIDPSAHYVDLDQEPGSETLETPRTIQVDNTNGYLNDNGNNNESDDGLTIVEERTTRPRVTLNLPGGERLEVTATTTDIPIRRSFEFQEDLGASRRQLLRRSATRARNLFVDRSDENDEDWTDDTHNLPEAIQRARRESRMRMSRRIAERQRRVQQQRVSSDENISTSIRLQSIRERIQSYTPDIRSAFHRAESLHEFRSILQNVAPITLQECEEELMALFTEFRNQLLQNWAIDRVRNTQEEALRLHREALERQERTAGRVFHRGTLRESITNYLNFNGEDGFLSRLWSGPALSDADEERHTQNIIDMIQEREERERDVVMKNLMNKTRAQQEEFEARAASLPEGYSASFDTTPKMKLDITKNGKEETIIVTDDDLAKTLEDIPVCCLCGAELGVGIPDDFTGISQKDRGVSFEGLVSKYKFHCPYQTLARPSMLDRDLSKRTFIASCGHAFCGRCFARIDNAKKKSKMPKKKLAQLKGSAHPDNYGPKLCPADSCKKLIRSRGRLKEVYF

[2] = molecular target: T2, SUMO ligase Siz2, Y2H fusion (S. cerevisiae) (UniProt Q12216); assay: as above
T2 sequence: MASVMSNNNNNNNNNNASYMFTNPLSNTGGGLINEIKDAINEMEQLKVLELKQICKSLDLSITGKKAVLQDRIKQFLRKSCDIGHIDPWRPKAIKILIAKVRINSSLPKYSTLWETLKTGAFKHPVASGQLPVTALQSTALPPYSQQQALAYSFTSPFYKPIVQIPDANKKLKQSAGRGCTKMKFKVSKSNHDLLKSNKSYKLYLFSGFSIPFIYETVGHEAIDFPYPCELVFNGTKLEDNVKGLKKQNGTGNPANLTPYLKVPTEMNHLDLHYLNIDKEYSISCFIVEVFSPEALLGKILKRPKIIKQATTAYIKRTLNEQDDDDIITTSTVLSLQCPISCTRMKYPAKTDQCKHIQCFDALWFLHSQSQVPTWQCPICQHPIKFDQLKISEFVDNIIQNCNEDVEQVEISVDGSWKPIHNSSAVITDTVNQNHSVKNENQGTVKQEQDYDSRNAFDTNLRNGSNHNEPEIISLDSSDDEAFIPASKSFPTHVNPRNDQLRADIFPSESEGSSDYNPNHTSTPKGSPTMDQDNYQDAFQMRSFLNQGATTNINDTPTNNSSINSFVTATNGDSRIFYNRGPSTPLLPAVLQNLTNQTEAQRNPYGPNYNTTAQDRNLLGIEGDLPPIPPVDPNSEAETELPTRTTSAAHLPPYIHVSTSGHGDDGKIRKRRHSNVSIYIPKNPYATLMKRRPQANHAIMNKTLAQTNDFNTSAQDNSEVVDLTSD

B1: Dbf4, AD-fusion and BD-fusion for Y2H (protein, UniProt P32325 1-704)
chain: MVSPTKMIIRSPLKETDTNLKHNNGIAASTTAAGHLNVFSNDNNCNNNNTTESFPKKRSLERLELQQQQHLHEKKRARIERARSIEGAVQVSKGTGLKNVEPRVTPKELLEWQTNWKKIMKRDSRIYFDITDDVEMNTYNKSKMDKRRDLLKRGFLTLGAQITQFFDTTVTIVITRRSVENIYLLKDTDILSRAKKNYMKVWSYEKAARFLKNLDVDLDHLSKTKSASLAAPTLSNLLHNEKLYGPTDRDPRTKRDDIHYFKYPHVYLYDLWQTWAPIITLEWKPQELTNLDELPYPILKIGSFGRCPFIGDRNYDESSYKRVVKRYSRDKANKKYALQLRALFQYHADTLLNTSSVNDQTKNLIFIPHTCNDSTKSFKKWMQEKAKNFEKTELKKTDDSAVQDVRNEHADQTDEKNSILLNETETKEPPLKEEKENKQSIAEESNKYPQRKELAATPKLNHPVLATFARQETEEVPDDLCTLKTKSRQAFEIKASGAHQSNDVATSFGNGLGPTRASVMSKNMKSLSRLMVDRKLGVKQTNGNNKNYTATIATTAETSKENRHRLDFNALKKDEAPSKETGKDSAVHLETNRKPQNFPKVATKSVSADSKVHNDIKITTTESPTASKKSTSTNVTLHFNAQTAQTAQPVKKETVKNSGYCENCRVKYESLEQHIVSEKHLSFAENDLNFEAIDSLIENLRFQI
binding [1]: no binding | binding [2]: no binding
